± gives the standard deviation. Over roughly 5,500 sequences, “pre-steady-state target cleavage rate” has its median near 0.1; the highest 2% begin near 0.64. The list shows a part of the results, in another mix than the full data.
What follows are sequences tested on MIWI (PIWIL1) piRISC loaded with piRNA #2 (30 nt) (assay: pre-steady-state target cleavage rate (min^-1); MIWI and MILI are mouse PIWI proteins and EfPiwi is from a freshwater sponge; tags in brackets are library labels; higher = faster piRNA-guided slicing of the target). Details: guide: piRNA #2 5'p-UUAGGUAACCCAGUAGAUCCAGAGGAAUUC; auxiliary factor: 500 nM mouse GTSF1.
Method in brief: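 Cleave-'n-Seq: 1 nM active affinity-purified piRISC with one synthetic guide and 0.1 nM transcribed, DNA-blocked target RNA library were mixed, with or without 500 nM GTSF1 partner protein, in HEPES–potassium acetate buffer at 33 °C for 0–8 or 0–960 min. Uncleaved targets were sequenced and normalised to depth and to weakly complementary targets, three trials were pooled, and k3 was capped at 0.0001 min^-1. The pre-steady-state cleavage rate was fitted […].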

Sequence	pre-steady-state target cleavage rate
GAAUUCCUCUGGUUCUACUGGGAUACCUAA	0.288 ± 0.068
CUUAUCCUCUGGAACUACAGGGUUACCUAA	0.252 ± 0.02
CUUAAGCAUCUGGAUCUACUGGGUUACCUAA	0.254 ± 0.021
CUUAACCUCUGGAUCUACUGGGUUAGGAUA [g6:g25:cont:t1A]	0.00593 ± 0.0036
CUUAUCCCUCUGGAUCUACUGGGUUACCUAA	0.276 ± 0.035
CUAUUCCACUGGAUCUAGUGGGUUACCUAA	0.261 ± 0.027
GAAUUCCUCACGAUCUACUGGGUUACCUAA	0.697 ± 0.051
CUUAUCCUCUGGAUCUUCUGGGUUACCUUA	0.289 ± 0.053
CUUAAGGAGUGGAUCUACAGGGUUACCAAA	0.0077 ± 0.0031
CUUAACCUCUGGAUCUUCUGGGUUACCAAA	0.0852 ± 0.012
CUUAAGGAGACCUAGUACUGGGUUACGAAA	< 0.0001
CUUAACGUCAGGAUCUACUGGGUUACCUAA	0.136 ± 0.024
CUUAACCUCUGGAUCUACUGGGUUACGCUAA	0.358 ± 0.027
CUUAUCCUCUGGAUCUACUGGGUUUGGUAA	0.0961 ± 0.035
GAAUUCCUCUGGAUCUACUGGGUUAGGAAA	0.238 ± 0.062
CUUUUCCUCUGGAUCUACUGCCAUACCUAA	0.00387 ± 0.0029
CAAUUCCUCUGGAAGAACUGGGUUACCUAA	0.211 ± 0.046
CUUAAGCUCAGGAUCAACUGGGUUACCUAA	0.221 ± 0.025
CUUAUCCUCUGGAUCUACUGGGUAACCUAA	0.228 ± 0.041
CUUAACCUCUGGAUCUACUGGGGUUACCUAA	0.0194 ± 0.0046
CAAUUCCUCUGGAUCUACUGGGAUUACCUAA	0.204 ± 0.045
CUUAUCCUCUGGAAGUACUGGGUUACCUAA	0.54 ± 0.033
CUAAUCCUCUGGAUCUACUGGGUUAGCUAA	0.377 ± 0.049
CUUAACCUCUGGAUCUACAGGGUAACCUAA	0.0467 ± 0.0074

Sequence	pre-steady-state target cleavage rate
CUUUUCCUCUGGAUCUACAGGGUUACCUAA	0.265 ± 0.023
CUUAAGGAGUGGAUCUACUGGGCUACCUAA	0.0538 ± 0.015
CUUAACCUGUGGAUCUACUGGGUUUCCUAA	0.0659 ± 0.0094
GAAUUCCUCUGGAUCUACUGGCUUAGCUAA	0.0137 ± 0.0053
CUUUUCCUCAGCAUCUACUGGGUUACCUAA	0.288 ± 0.032
CAACUCCUCUGGAUCUACUGGGUUACCUAA	0.351 ± 0.051
CUAUUCCUCUGGAUCUACUGGGUUACCAUA	0.413 ± 0.054
CUUAGCCUCUGGAUCUACUGGGUUACCUAA	0.219 ± 0.026
CUUAUCCUCAGGAUCUACAGGGUUACCUAA	0.283 ± 0.032
CUUAAGGACUGGAUCUACUGGGUUACGCUAA	0.154 ± 0.056
CUUAACCUCUCGUUCUACUGGGUUACCUAA	0.401 ± 0.044
CUAUUCCUCUGGAUCUACUCGGUAACCUAA	0.0141 ± 0.0082
CUUAAGGACUCGAUCUACUGGGUUUCCUAA	0.00343 ± 0.0034
CUUAAGCUCUGGAUCUACAGGGUUACCUAA	0.0939 ± 0.011
CUUUUCCUCUGGAUCUACUGGGUGACCUAA	0.326 ± 0.035
CUUAACCUCUGCAUCUACUGGCUUACCUAA	0.0916 ± 0.0084
CUUUUCCUCUGGAUCGACUGGGUUACCUAA	0.242 ± 0.032
GAAUUCCUCUGGAUCUACUGGGUUACCUAG [g2:g30:cont:t1G]	0.227 ± 0.049
CUUAAGGAGUGGAUCUAGUGGGUUACGUAA	0.0261 ± 0.011
CUUAAGGACUGGAUGUACUGGGUUACCUAA	0.0979 ± 0.057
CUUUUCCUCUGGAUCUUCUGGGUUACCUUA	0.29 ± 0.042
CUUAAGCUCUGGAUCAUCUGGGUUACCUAA	0.0652 ± 0.0083
CUAUUCCUCUGGAUCUACUGGGUUAGGAAA	0.00743 ± 0.0039
CUUAAGCUCUGGAUCUACUGGGUUACCUCA	0.0826 ± 0.016

Sequence	pre-steady-state target cleavage rate
CAAUACCACUGGAUCUACUGGGUUACCUAA	0.456 ± 0.042
CUUAAGGAGAGGAUCUACUGGGUUACCUGA	0.00553 ± 0.0032
CUAUUCCUCAGGAUCUACUGGGUUAGCUAA	0.11 ± 0.04
CUUAAGGUCUGGAUCUACUGGGAUACCUAA	0.206 ± 0.028
CUUAAGGAGUGGUUCUACUGGGUUUCCUAA	0.00451 ± 0.0028
CUUUUCCUGAGGAUCUACUGGGUUACCUAA	0.215 ± 0.023
CUUAAGGAGUGGAUCAACUGGGUUACCUAA	0.0313 ± 0.008
CUUAAGGAGAGGAUCUACUGGGCUACCUAA	0.0105 ± 0.0045
GAAUUCCUCUGGAUCUAGUGGGUUACCUAA	0.123 ± 0.021
CUUAAGCUCUGGAUCUUCUGGGUUACCAAA	0.0654 ± 0.012
CUUUUCCUCUGGAUCUCUGGGUUACCUAA	0.00459 ± 0.0033
CUUAACCUCUGGAUGUACUGGGAUACCUAA	0.0634 ± 0.0074
CUUAAGCACUGGAUCUAGUGGGUUACCUAA	0.11 ± 0.012
CUAUUCCUCUGGAUCUACUGCGUUAGCUAA	0.146 ± 0.06
CAAUUCCUCUGGAUCUUCUGGGUUUCCUAA	0.208 ± 0.045
CUUAACCUACUGGAUCUACUGGGUUACCUAA	0.291 ± 0.029
CAAUUCCUCUGCAUCUUCUGGGUUACCUAA	0.392 ± 0.043
CUUAAGGUCUGGCUCUACUGGGUUACCUAA	0.201 ± 0.019
CUUAUCCUCUGGAUCUACUGGGUUACCGUAA	0.344 ± 0.063
CUUAACCUCUCGAUCUACUGGGUUAGCUAA	0.14 ± 0.017
CUUAACGUCUGGAACUACUGGGUUACCUAA	0.329 ± 0.029
CUUAAGCUCUCGAUCUACUGGGUUACCAAA	0.189 ± 0.018
CUUAACCCCUGGAUCUACUGGGUUACCUAA	0.4 ± 0.031
GAAUUCCUCUGGAUCAAGUGGGUUACCUAA	0.00675 ± 0.0032

Sequence	pre-steady-state target cleavage rate
CUUAAGGACUGGAUCUACUGGGUUCACCUAA	0.0717 ± 0.032
CUAUUCCUGUGGAUCUUCUGGGUUACCUAA	0.342 ± 0.057
CUUAAGGUCUGGAUCUACUGCGUUACCUAA	0.338 ± 0.048
CUAUUCCUCUGGAUCUACCGGGUUACCUAA	0.159 ± 0.018
CAAAUCCUGUGGAUCUACUGGGUUACCUAA	0.339 ± 0.042
CAAUUCCUCUGGAUCUACUCGGUUUCCUAA	0.0763 ± 0.028
GAAUUCCUGAGGAUCUACUGGGUUACCUAA	0.307 ± 0.029
GAAUUCCUCUGCAUGUACUGGGUUACCUAA	0.444 ± 0.039
GAAUUCCUCUGGAUCUUGUGGGUUACCUAA	0.0044 ± 0.0032
CUUAAGGAGACCAUCUACUGUGUUACCUAA	0.00683 ± 0.0027
GAAUUCCUCUGCAUCUACUGGGUUAGCUAA	0.398 ± 0.041
CUUUUCCUCUGGUUCUACUGGGUUACCUUA	0.254 ± 0.041
GAAUUCCUCUGGAUCUACUGGGAUUACCUAA	0.184 ± 0.034
CUUUACCUCUGGAUCUACUGGGAUACCUAA	0.234 ± 0.025
CAAAUCGUCUGGAUCUACUGGGUUACCUAA	0.383 ± 0.06
CUUAUCCUCUGGAUCUAGUGCGUUACCUAA	0.0645 ± 0.0086
CUUAAGCUCUGGAGCUACUGGGUUACCUAA	0.191 ± 0.026
CUUUUCCUCUGGAUCUACUGGGUUACCUUA	0.316 ± 0.05
GAAUUCCUCUGGAUCUACAGGGAUACCUAA	0.125 ± 0.018
CUAUUCCUCUGGAUCUAGUGCGUUACCUAA	0.0719 ± 0.012
CUAUUCCUCAGGAUCUACUCGGUUACCUAA	0.0875 ± 0.019
CAAUUCGUGUGGAUCUACUGGGUUACCUAA	0.485 ± 0.037
CUUAAGCUCUGGAUCUACAGGGUUACGUAA	0.0869 ± 0.0095
CAAUUCCUCUGGAUGUACUGGCUUACCUAA	0.09 ± 0.026

Sequence	pre-steady-state target cleavage rate
CUUAAGGAGAGGAUCUACUGGGUUACCUA	0.0163 ± 0.0068
CUUAAGGUCUGGAUCUACUGGUUUACCUAA	0.136 ± 0.019
GAAUUCCUCUGGAUCUACUGGGCUACCUAA	0.116 ± 0.021
CAAUUCCUCUGGAUCUACUGGGUUAUCCUAA	0.618 ± 0.071
GAAUUCCUCUGGAUCUACUGGGAAUCCUAA	0.121 ± 0.039
CUUAUCCUCAGGAUCAACUGGGUUACCUAA	0.422 ± 0.052
CUAUUCCUCUGGAUCUAUGGGUUACCUAA	0.00989 ± 0.0029
CUUAAGGUCUGGAUGUACUGGGUUACCUAA	0.168 ± 0.052
GAAUUCCUCAGGAUCUACAGGGUUACCUAA	0.295 ± 0.031
CUAUUCCUCUGGAUCUACUGGGAUAGCUAA	0.229 ± 0.053
CUUAAGGAGUGGAUCUACUGGGUUACCUCA	0.0927 ± 0.027
CAAUUCCUCUGGAUCUACUGGGUUACCCUAA	0.3 ± 0.083
CUUUUCCUCUGCAUCUACUGGGUAACCUAA	0.169 ± 0.018
CUUAAGGACUGGAUCUACUGGGUUACCUUAA	0.134 ± 0.05
CUUAAGGACUGGUUCUACUGGGUUACGUAA	0.212 ± 0.076
CUUAACCUCUGGGUCUACUGGGUUACCUAA	0.317 ± 0.033
CUUUUGCUCUGGAACUACUGGGUUACCUAA	0.248 ± 0.031
CAAUUCCACUGCAUCUACUGGGUUACCUAA	0.459 ± 0.034
CUUUUCCUCUCGAUCUAGUGGGUUACCUAA	0.311 ± 0.024
CAUAACCUCUGGAUCUACUGGGUUACCUAA	0.234 ± 0.033
GAAAUCCUCAGGAUCUACUGGGUUACCUAA	0.446 ± 0.051
CAAAUCCUCUGGAUGUACUGGGUUACCUAA	0.515 ± 0.048
CUUAAGGAGACCUUCUACUGCGUUACCUAA	0.00369 ± 0.0035
CUAUCCCUCUGGAUCUACUGGGUUACCUAA	0.352 ± 0.045

Sequence	pre-steady-state target cleavage rate
CUUUUCCUCUGGAUCUACUGGGAAACCUAA	0.25 ± 0.045
CUUUUCCUCUGGAUCAACUGGGUUACCUAA	0.453 ± 0.049
CUUAUCCUGUGCAUCUACUGGGUUACCUAA	0.264 ± 0.022
GAAUUCGUGUGGAUCUACUGGGUUACCUAA	0.476 ± 0.037
CUUUUCCACUGGUUCUACUGGGUUACCUAA	0.446 ± 0.03
CAAUUCCUGUGGAUCUACUGGGAUACCUAA	0.344 ± 0.05
CUUUUCCUCUGGAUCUACUGCGAUACCUAA	0.216 ± 0.036
CUUAACCUGUGGAUCUACAGGGUUACCUAA	0.271 ± 0.021
CUUAUCCUCUGGAUCUACUGCGUUACGUAA	0.411 ± 0.048
CUUAACCUCUGAAUCUACUGGGUUACCUAA	0.158 ± 0.019
CUUAAGGUCAGGAUCUACUGGGAUACCUAA	0.00826 ± 0.0056
CUUUUGCUCAGGAUCUACUGGGUUACCUAA	0.432 ± 0.042
CUUAACCUCUGGAUCUACUGGGUUACAUAA	0.6 ± 0.034
CAUUUCCUCUGGAACUACUGGGUUACCUAA	0.612 ± 0.044
CUUAUCCUCUGGAUCUAGUGGGUUACCUUA	0.135 ± 0.02
CUAUUCCUCUGGUUCUACUGGCUUACCUAA	0.155 ± 0.016
GAAUUCCUCUGGAUCUACUGGCUUACCAAA	0.1 ± 0.03
CUAUUCCUCUGGAUCUACUGGGUCUACCUAA	0.493 ± 0.044
CUUAAGCUCUGGAUCGUACUGGGUUACCUAA	0.00549 ± 0.0047
CUAUUCCUCUGGAUCUACUGGGUUACCGUAA	0.323 ± 0.046
CUUAAGCUCUGGAUCUACUGGGUUACGAUA	0.0839 ± 0.013
CAAUUCCUCUGGAUCUACUGUGUUACCUAA	0.751 ± 0.075
CUUUUCCUCUGGUACUACUGGGUUACCUAA	0.385 ± 0.051
CUUAUCCACUGGAUCUUCUGGGUUACCUAA	0.41 ± 0.054
